Measurements published in the RNAGym collection of RNA variant scans (doi:10.1101/gad.245936.114).
Variants at the floor of the assay are shown more often than the library holds them.

B1: tRNA (parent)
chain: CUCUCGGUAGCCAAGUUGGUUUAAGGCGCAAGACUUUAAUUUAUCACUACGAAAUCUUGAGAUCGGGCGUUCGACUCGCCCCCGGGAGAUUUUUUCCUCGAGCAA

Variants of: B1
Test: nonsense suppression (GFP-seq) (ratio to wild type); higher = more function; SUP4oc tRNA, yeast GFP reporter sort-seq
How it was run: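 To measure nonsense suppression, tRNA variants from a library carrying ~3% random mutations were integrated into the yeast genome alongside RFP and a GFP ochre reporter under galactose control. Growth took place in raffinose/galactose medium supplemented with 80 mg/L adenine, followed by sorting into GFP/RFP bins and Illumina sequencing of each bin (phred ≥30). For each variant with ≥100 reads and ≥30 cells, the bin median GFP/RFP values were weighted by its estimated cell share per bin and referenced to the unmutated parent tRNA.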

Nonsense suppression, ≤ 0.026:
CUCUUGGUAGCAAAGUUGGUUUAAGGCGCAAGACUUUAAUUUAUCACUACGAAAUCUUGAGGUCGCGCGUUCGACUCGCCGUCGGGAGAUUUUUUCCUCGAGCAA [C5U C12A A62G G66C C81G C82U]
CUCUUGGUAGUCAAGUUGGUUUAAGGCGCAAGACUUUAAUUUAUCACUACGAAAUCCUGAGAUCGGGCGUUCGACUCGCCCCCGGGAGAUUUUUUCCUCGAGCAA [C5U C11U U57C]
CUCUUGGUAGCCAAGUUGGUUUAAGGCGAAAGACUUUAAUUUAUCACUACGAAAUCUUCAGAUCGGGCGUUCGACUCGCCCCCGGGAGAUUUUUUCCUCGAGCAA [C5U C29A G59C]
CUCUUGGUAGCCAAGUUGGUUUAAGGCGCAAGACUUUAAUUUAUCACUACGAAAUCUUGUGAUCCGGCGUUCGACUCGCCCCCGGGAGAUUUUUUCCUCGAGCAA [C5U A60U G65C]
CUCUUGGUAGUCAAAUUUGAUUAAGGCGCUAGACUUUAAUUUAUCACUACGAAAUUUUGAGAUCGGGCGUUCGACACGCCCCCGGAAGAUUUUUUCCUCGAGCAA [C5U C11U G15A G18U U20A A30U C56U U76A G86A]
CUCUUGGUAGCCAAGUUGGUUUAAGGCGAAAGACUUUAAUUUAUCACUACGAAAUCUUGAGAUCGGGCGUUCGAAUCGCCCCCGGGAGAUUUUUUCCUCGAGCAA [C5U C29A C75A]
CUCUUGGUAGCUAAGUUGGUUUAAGGCGCAAGACUUUAAUUUAUCACUACGAAAUCUUGAGAUCGGGCGUUCGACUCGCCCCCCGGAGAUUUUUUCCUCGAGCAA [C5U C12U G84C]
CUCUUGGUAGCCAAGUUGGUUUAAGGCGCAAGACUUUAAUUUAUCACUACGAAAUCUUGAGUUCGGGCGUUCGACUCGCCCCCGGGAGAUUUUUUCCUCGAGCAA [C5U A62U]
CUCUUGGUAGCCAAGUUGGUUUAAGGCGCAAGACUUUAAUUUAUCACUACGAAAUCUUGAGAUCGGGCGUUCGUCUCGCCCCCGGGAGAUUUUUUCCUCGAGCAA [C5U A74U]
CUCUUGGUAGCCAAGUUGGUUUAAGGCGCAAGACUUUAAUUUAUCACUACGAAAUCUUGCGAUCGGGCGUUCGACUCGCCCCCGGGUGAUUUUUUCCUCGAGCAA [C5U A60C A87U]
CUCUUGGUAGCCAAGUUGGUUUAAGGCGUAAGACUUUAAUUUAUCACUACGAAAUCUUGGGAUCGGGCUUUCGACUCGCCCCCGGGAGAUUUUUUCCUCGAGCAA [C5U C29U A60G G69U]
CUCUUGGUAGCUAAGUUGGUUUAAGGCGCAAGACUUUAAUUUAUCACUACGAAAUCUUGAGAUCGGGCGUUCGACUCGCCCCCGUGAGAUUUUUUCCUCGAGCAA [C5U C12U G85U]
CUCUUGGUAGCAAAGUUGGUUUAAGGCGCAAGACUUUAAUUUAUCACUACGAAAUCUUGAGAUCGGGCGUUCGACUCGCCCCCGGGAGAUUUUUUCCUCGAGCAA [C5U C12A]
CUCUUGGUAGCCAAGUUGGUUUAAGGUGCAAGACUUUAAUUUAUCACUACGAAAUCUUGAGAUCGGUCGUUCGACUCGCCCCCGGGAGAUUUUUUCCUCGAGCAA [C5U C27U G67U]
CUCUUGGUAGCCAAGUUGGUUUAAGGCGCAAGACUUUAAUUUAUCACUACGAAAUCUUGAGCUCCGGCGGACGACUCGCCCCCGGGAGAUUUUUUCCUCGAGCAA [C5U A62C G65C U70G U71A]
CUCUUGGUAGCCAAGUUGGUUUAAGGCGCAAGACUUUAAUUUAUCACUACGAAAUCUUGAGCUCGGUCGUUCGACUCGCCCCCGGGAGAUUUUUUCCUCGAGCAA [C5U A62C G67U]
CUCUUGGUAGUCAAGUUGGUUUAAGGCGCAAGACUUUAAUUUAUCACUACGAAAUAUUGAGAUCGGGCGUUCGACUCGCCCCCGGGAGAUUUUUUCCUCGAGCAA [C5U C11U C56A]
CUCUUGGUAGCCAAGUUGGUUUAAGGCGCAAGACUUUAAUUUAUCACUACGAAAUCUUGAGAUCGGGCGUUCGGCUAGCCCCCGGGAGAUUUUUUCCUCGAGCAA [C5U A74G C77A]
CUCUUGGUAGCCAAGUUGGUUUAAGGCGUAAGAUUUUAAUUUAUCACUACGAAAUCUUGAGAUCGGGCGUUCGACUCGCCCCCGGGCGAUUUUUUCCUCGAGCAA [C5U C29U C34U A87C]
CUCUUGGUAGACAAGUUGGAUUAAGGGGCAAGAUUUUAAUUUAUCACUACGAAAGCUUGAGAUCGGGCGUUCGACUCGCCCCCGGGAGAUUUUUUCCUCGAGCAA [C5U C11A U20A C27G C34U U55G]
CUCUUGGUAGCCAAGUUGGUUUAAGGCGCAAGACUUUAAUUUAUCACUACGAAAUCUUGAGAUCGGGCGUUCGACUCGCCCCCGGGAGGUUUUUUCCUCGAGCAA [C5U A89G]
CUCUUGGUAGACAAGUUGGUGUAAGGCGCAAGACUUUAAUUUAUCACUACGAAAUCUUGAGAUCGGGCGUUCGACUCGCCCCCGGGUGAUUUUUUCCUCGAGCAA [C5U C11A U21G A87U]
CUCUUGGUAGCCAAGUUGGUUUAAGGAGCGAGACUUUAAUUUAUCACUACGAAAUCUUGGGAUCGGGCGUUCGACUCGCCCCCGGGAGAUUUUUUCCUCGAGCAA [C5U C27A A30G A60G]
CUCUUGGUAGCCAAGUUGGUUUAAGGCGCAAGAAUUUAAUUUAUCACUACGAAAUCUUGGGAUCGGGCGUUCGACUCGCCCCCGGGAGAUUUUUUCCUCGAGCAA [C5U C34A A60G]
CUCUUGGUAGUCAAGUUGGUUUAAGGCGCAAGACUUUAAUUUAUCACUACGAAAUCUUGAGAUCGAGCGUUCGACUCGCCCCCGGGACAUUUUUUCCUCGAGCAA [C5U C11U G66A G88C]
CUCUUGGUAGCAAAGUUGGUUUAAGGCGCAAGACUUUAAUUUAUCACUACGAAAUCUUGAGAUCGGGCGUUCGACGCGCCCCCGGGAGAUUUUUUCCUCGAGCAA [C5U C12A U76G]
CUCUUGGUAGCCAAGUUGGUUUAAGGCGCAAGACUUUAAUUUAUCACUACGAAAUCUUGCGAUCGGGCGUUCGACUCGCCCCAGGGAGAUUUUUUCCUCGAGCAA [C5U A60C C83A]
